# Some of the results follow.
# B1: MGL (Homo sapiens), Q8IUN9 (protein)
# chain: MTRTYENFQYLENKVKVQGFKNGPLPLQSLLQRLCSGPCHLLLSLGLGLLLLVIICVVGFQNSKFQRDLVTLRTDFSNFTSNTVAEIQALTSQGSSLEETIASLKAEVEGFKQERQAGVSELQEHTTQKAHLGHCPHCPSVCVPVHSEMLLRVQQLVQDLKKLTCQVATLNNNASTEGTCCPVNWVEHQDSCYWFSHSGMSWAEAEKYCQLKNAHLVVINSREEQNFVQKYLGSAYTWMGLSDPEGAWKWVDGTDYATGFQNWKPGQPDDWQGHGLGGGEDCAHFHPDGRWNDDVCQRPYHWVCEAGLGQTSQESH
# Assays:
# Test in all cases: glycan array binding signal (z-score within array); higher = stronger binding
# Conditions in all cases: glycan notation: IUPAC condensed, linker removed
# [1] = biological target: Gal(b1-3)GlcNAc(b1-2)Man(a1-3)[Gal(b1-3)GlcNAc(b1-2)Man(a1-6)]Man(b1-4)GlcNAc(b1-4)GlcNAc
# Method in brief: (§1)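 The Consortium for Functional Glycomics database supplied 3228 glycan arrays, of which those lacking an available protein sequence were dropped. The binding signal, a within-array Z-score, was averaged across arrays of the same protein sequence and across linkers. Negative scores can be read as non-binding.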
# [2] = biological target: Gal(b1-3)GlcNAc(b1-2)Man(a1-3)[Gal(b1-3)GlcNAc(b1-2)Man(a1-6)]Man(b1-4)GlcNAc(b1-4)[Fuc(a1-6)]GlcNAc
# Method in brief: as §1
# [3] = biological target: Gal(b1-3)GlcNAc(b1-2)Man(a1-3)[GlcNAc(b1-4)][Gal(b1-3)GlcNAc(b1-2)Man(a1-6)]Man(b1-4)GlcNAc(b1-4)GlcNAc
# Method in brief: as §1
# [4] = biological target: Gal(b1-3)GlcNAc(b1-2)[Gal(b1-3)GlcNAc(b1-6)]Man(a1-6)[Gal(b1-3)GlcNAc(b1-2)Man(a1-3)]Man(b1-4)GlcNAc(b1-4)GlcNAc
# Method in brief: as §1
# [5] = biological target: Gal(b1-3)GlcNAc(b1-3)Gal(b1-3)GlcNAc
# Method in brief: as §1
# [6] = biological target: Gal(b1-3)GlcNAc(b1-3)Gal(b1-4)Glc
# Method in brief: as §1
# [7] = biological target: Gal(b1-3)GlcNAc(b1-3)Gal(b1-4)GlcNAc
# Method in brief: as §1
# [8] = biological target: Gal(b1-3)GlcNAc(b1-3)Gal(b1-4)GlcNAc(b1-2)Man(a1-3)[Gal(b1-3)GlcNAc(b1-3)Gal(b1-4)GlcNAc(b1-2)Man(a1-6)]Man(b1-4)GlcNAc(b1-4)GlcNAc
# Method in brief: as §1
# [9] = biological target: Gal(b1-3)GlcNAc(b1-3)Gal(b1-4)GlcNAc(b1-2)[Gal(b1-3)GlcNAc(b1-3)Gal(b1-4)GlcNAc(b1-6)]Man(a1-6)[Gal(b1-3)GlcNAc(b1-3)Gal(b1-4)GlcNAc(b1-2)Man(a1-3)]Man(b1-4)GlcNAc(b1-4)[Fuc(a1-6)]GlcNAc
# Method in brief: as §1
# [10] = biological target: Gal(b1-3)GlcNAc(b1-3)Gal(b1-4)GlcNAc(b1-3)Gal(b1-4)GlcNAc(b1-2)[Gal(b1-3)GlcNAc(b1-3)Gal(b1-4)GlcNAc(b1-3)Gal(b1-4)GlcNAc(b1-6)]Man(a1-6)[Gal(b1-3)GlcNAc(b1-3)Gal(b1-4)GlcNAc(b1-3)Gal(b1-4)GlcNAc(b1-2)Man(a1-3)]Man(b1-4)GlcNAc(b1-4)[Fuc(a1-6)]GlcNAc
# Method in brief: as §1
# [11] = biological target: Gal(b1-3)GlcNAc(b1-3)Gal(b1-4)GlcNAc(b1-6)[Gal(b1-3)GlcNAc(b1-3)]Gal(b1-4)Glc
# Method in brief: as §1
# [12] = biological target: Gal(b1-3)GlcNAc(b1-3)Gal(b1-4)[Fuc(a1-3)]GlcNAc
# Method in brief: as §1
# [13] = biological target: Gal(b1-3)GlcNAc(b1-3)Gal(b1-4)[Fuc(a1-3)]GlcNAc(b1-6)[Gal(b1-3)GlcNAc(b1-3)]Gal(b1-4)Glc
# Method in brief: as §1
# [14] = biological target: Gal(b1-3)GlcNAc(b1-3)GalNAc
# Method in brief: as §1
# [15] = biological target: Gal(b1-3)GlcNAc(b1-6)Gal(b1-4)GlcNAc
# Method in brief: as §1
# [16] = biological target: Gal(b1-3)GlcNAc(b1-6)GalNAc
# Method in brief: as §1
# [17] = biological target: Gal(b1-3)GlcNAc(b1-6)[Gal(b1-3)]GalNAc
# Method in brief: as §1
# Gal(b1-3)GlcNAc6S = biological target: Gal(b1-3)GlcNAc6S
# Method in brief: as §1
# [18] = biological target: Gal(b1-3)[Fuc(a1-4)]GlcNAc
# Method in brief: as §1
# [19] = biological target: Gal(b1-3)[Fuc(a1-4)]GlcNAc(b1-2)Man
# Method in brief: as §1
# [20] = biological target: Gal(b1-3)[Fuc(a1-4)]GlcNAc(b1-2)Man(a1-3)[Gal(b1-3)[Fuc(a1-4)]GlcNAc(b1-2)Man(a1-6)]Man(b1-4)GlcNAc(b1-4)[Fuc(a1-6)]GlcNAc
# Method in brief: as §1
# [21] = biological target: Gal(b1-3)[Fuc(a1-4)]GlcNAc(b1-3)Gal(b1-3)[Fuc(a1-4)]GlcNAc
# Method in brief: as §1
# [22] = biological target: Gal(b1-3)[Fuc(a1-4)]GlcNAc(b1-3)Gal(b1-4)[Fuc(a1-3)]GlcNAc
# Method in brief: as §1
# [23] = biological target: Gal(b1-3)[Fuc(a1-4)]GlcNAc(b1-6)GalNAc
# Method in brief: as §1
# [24] = biological target: Gal(b1-3)[GlcNAc(b1-6)]GalNAc
# Method in brief: as §1
# [25] = biological target: Gal(b1-3)[Neu5Ac(a2-6)]GalNAc
# Method in brief: as §1
# [26] = biological target: Gal(b1-3)[Neu5Ac(a2-6)]GlcNAc(b1-4)Gal(b1-4)Glc
# Method in brief: as §1
# [27] = biological target: Gal(b1-3)[Neu5Ac(b2-6)]GalNAc
# Method in brief: as §1
# Gal(b1-4)Gal = biological target: Gal(b1-4)Gal
# Method in brief: as §1
# [28] = biological target: Gal(b1-4)GalNAc(a1-3)[Fuc(a1-2)]Gal(b1-4)GlcNAc
# Method in brief: as §1
# [29] = biological target: Gal(b1-4)GalNAc(b1-3)[Fuc(a1-2)]Gal(b1-4)GlcNAc
# Method in brief: as §1
# Gal(b1-4)Glc = biological target: Gal(b1-4)Glc
# Method in brief: as §1
# Gal(b1-4)Glc6S = biological target: Gal(b1-4)Glc6S
# Method in brief: as §1
# Gal(b1-4)GlcNAc = biological target: Gal(b1-4)GlcNAc
# Method in brief: as §1
# [30] = biological target: Gal(b1-4)GlcNAc(a1-6)Gal(b1-4)GlcNAc
# Method in brief: as §1
# Gal(b1-4)GlcNAc(b1-2)Man = biological target: Gal(b1-4)GlcNAc(b1-2)Man
# Method in brief: as §1
# [31] = biological target: Gal(b1-4)GlcNAc(b1-2)Man(a1-3)Man(b1-4)GlcNAc(b1-4)GlcNAc
# Method in brief: as §1
binder,measurement,setting,value
B1,glycan array binding signal (z-score),[1],-0.229
same,glycan array binding signal (z-score),[2],-0.246
same,glycan array binding signal (z-score),[3],-0.245
same,glycan array binding signal (z-score),[4],-0.266
same,glycan array binding signal (z-score),[5],-0.248
same,glycan array binding signal (z-score),[6],-0.247
same,glycan array binding signal (z-score),[7],-0.268
same,glycan array binding signal (z-score),[8],-0.236
same,glycan array binding signal (z-score),[9],-0.049
same,glycan array binding signal (z-score),[10],-0.152
same,glycan array binding signal (z-score),[11],-0.24
same,glycan array binding signal (z-score),[12],-0.246
same,glycan array binding signal (z-score),[13],-0.25
same,glycan array binding signal (z-score),[14],-0.25
same,glycan array binding signal (z-score),[15],-0.241
same,glycan array binding signal (z-score),[16],3.24
same,glycan array binding signal (z-score),[17],-0.205
same,glycan array binding signal (z-score),Gal(b1-3)GlcNAc6S,-0.249
same,glycan array binding signal (z-score),[18],-0.242
same,glycan array binding signal (z-score),[19],-0.218
same,glycan array binding signal (z-score),[20],-0.213
same,glycan array binding signal (z-score),[21],-0.241
same,glycan array binding signal (z-score),[22],-0.248
same,glycan array binding signal (z-score),[23],1.1
same,glycan array binding signal (z-score),[24],-0.229
same,glycan array binding signal (z-score),[25],-0.238
same,glycan array binding signal (z-score),[26],-0.259
same,glycan array binding signal (z-score),[27],-0.241
same,glycan array binding signal (z-score),Gal(b1-4)Gal,-0.264
same,glycan array binding signal (z-score),[28],-0.253
same,glycan array binding signal (z-score),[29],-0.239
same,glycan array binding signal (z-score),Gal(b1-4)Glc,-0.247
same,glycan array binding signal (z-score),Gal(b1-4)Glc6S,-0.243
same,glycan array binding signal (z-score),Gal(b1-4)GlcNAc,-0.243
same,glycan array binding signal (z-score),[30],-0.241
same,glycan array binding signal (z-score),Gal(b1-4)GlcNAc(b1-2)Man,-0.11
same,glycan array binding signal (z-score),[31],-0.25
